Reference: article PMC4207660, “Identification and Characterization of Hundreds of Potent and Selective Inhibitors of Trypanosoma brucei Growth from a Kinase-Targeted Library Screening Campaign” (PLoS Neglected Tropical Diseases, 2014)
≈ marks a conversion by molar mass, not a printed value. Like-named read-outs stand apart in the source and are kept apart here.

Tests used:
[1] = biological target: T1, Human Serum Albumin (HSA) (Homo sapiens, UniProt P02768); test: Protein binding assay (HPLC stationary phase), HSA; type: in vitro ADME; conditions: Measured
T1 construct: purchased Chiral Technologies, France
Procedure: Chemically bonded Human Serum Albumin (HSA) and Alpha-1-acidglycoprotein HPLC stationary phases (Chiral Technologies, France) were used for measuring compounds' binding to plasma proteins, applying linear gradient elution up to 30% iso-propanol. The run time was 6 min, including the re-equilibration of the stationary phases with the 50 mM pH7.4 ammonium acetate buffer. The obtained gradient retention times were standardised using a calibration set of mixtures as described in the references. The average standard error of the assay depends on the binding strength and kinetics of the compounds.

Cytochrome P450 (CYP450) = Cytochrome P450 (CYP450) (Homo sapiens, UniProt P08684); test: Cytochrome P450 inhibition profile; type: in vitro ADME; conditions: Measured
Procedure: The P450 inhibition profile of the inhibitors was determined as previously described.

[2] = CLND kinetic solubility assay; type: physicochemical; conditions: phosphate buffered saline, pH 7.4, aqueous buffer, kinetic from dmso stock; Measured; read-out: Aq Sol
Procedure: 5 µL of 10 mM DMSO stock solution was diluted to 100 µL with pH 7.4 phosphate buffered saline, equilibrated for 1 hour at room temperature, filtered through Millipore MultiscreenHTS-PCF filter plates (MSSL BPC). The filtrate was quantified by suitably calibrated flow injection Chemi-Luminescent Nitrogen Detection.

[3] = system: T. brucei brucei parasites (Lister 427 strain); test: Dose response growth inhibition assay (resazurin, 72 h); type: cell-based; conditions: Trypanosoma brucei; T. b. brucei growth inhibition; read-out: Tbb pEC50 (converted)
Procedure: Greiner sterile black clear bottom 384-well assay plates were pre-dispensing with 200 nL of compound in each well, from master plates at 1 mM (100% DMSO) containing selection from the GSK compound collection. Controls of 0% response (control 1, 200 nL of 100%DMSO) and 100% response (control 2, 200 nL of 1 mM pentamidine) were included in each assay plate in columns 6 and 18, respectively. Plates containing 200 nL of 100% DMSO were included randomly in the assay, to assess quality through all process. […] After this period, 10 µL of 200 µM resazurin solution in prewarmed HMI-9 were added to each well, and plates were allowed to incubate 2 hours more prior fluorescence reading in a Wallac EnVision Multilabel Plate Reader (Perkin-Elmer). Raw fluorescent data from the Envision plate reader were uploaded into GSK HTS database (ActivityBase). Activity of each well was normalized as a percentage of inhibition per-plate basis using the following equation: [drawing 1]
For dose-response experiments, serial compound dilutions of selected hits from the primary campaign were plotted against compound concentration. Dose response master plates were prepared by 3-fold dilutions (starting with 10 mM DMSO stock solutions), providing 11 concentrations. From these master plates, 200 nL per well was stamped in final assay plates, including the same controls describe in the primary single shot assay. […]

Row | Structure (SMILES) | HSA % binding [1] [%] | IC50 (Cytochrome P450 (CYP450); CYP3A4, VG substrate, read-out: CYP3A4VG pXC50 (converted)) [µM] | IC50 (Cytochrome P450 (CYP450); CYP3A4, VR substrate, read-out: CYP3A4VR pXC50 (converted)) [µM] | solubility kinetic at 1 h [2] [µM] | EC50 [3] [µM]
1 | Cc1cc([C@H](C)Oc2ccccc2)c2nc(N3CCOCC3)cc(=O)n2c1 [NEU-0001128] | 93.59 | 10 | > 50.1 | 202 (≈ 73.8 µg/mL) | 0.501
2 | Nc1nc(Nc2ccc(S(N)(=O)=O)cc2)sc1C(=O)c1c(F)cccc1F [NEU-0001158] |  |  |  | 230 (≈ 94.4 µg/mL) | 
3 | COCc1ccc(-c2cc(C(N)=O)c3[nH]cc(C4CCS(=O)(=O)CC4)c3c2)o1 [NEU-0001192] | 89.2 |  |  | 59 (≈ 23.7 µg/mL) | 0.316
